Assay results: the antibiotic and cytotoxicity screens of Wong et al. (2023)
The list shows a part of the results.

Columns and labels:
HSkMC = human skeletal muscle cells; assay: cytotoxicity call (relative viability < 0.9); details: 10 µM
HepG2 = assay: cytotoxicity call (relative viability < 0.9); details: 10 µM
S. aureus RN4220 = assay: growth inhibition call (relative growth <= 0.2); details: 50 µM

Structure (SMILES)	cytotoxicity call (HSkMC)	cytotoxicity call (HepG2)	growth inhibition call (S. aureus RN4220)
CN1CC2(CCN(C(=O)[C@H]3CCC(=O)N3)CC2)COc2ccccc2S1(=O)=O	inactive	inactive	inactive
Cc1ccnc2ccccc12	inactive	inactive	inactive
CC(C)C(=O)NNC(=O)c1ccccc1O	inactive	inactive	inactive
C[C@@H]1CN([C@@H](C)CO)C(=O)Cc2cc(NS(=O)(=O)c3cn(C)cn3)ccc2O[C@@H]1CN(C)S(=O)(=O)c1ccccc1	inactive	inactive	inactive
C=CCOC(=O)[C@@H]1[C@H]2C(=O)O[C@H](c3ccccc3)[C@H](c3ccccc3)N2[C@H](c2ccc(OCCOC(=O)[C@@H]3C[C@@H]4C(=O)N[C@@H](CCCCNC(C)=O)C(=O)N4[C@@H]3c3ccc(O)cc3)cc2)[C@@]12C(=O)Nc1ccccc12	inactive	inactive	inactive
CC(C)CC#Cc1cnc2c(c1)C(=O)N([C@H](C)CO)C[C@H](C)[C@H](CN(C)C(=O)CCN1CCCCC1)O2	inactive	inactive	inactive
COC(=O)CC1C(C)(C)C(OC(C)=O)C2CC3C4CC(=O)OC(c5ccoc5)C4(C)CCC3C1(C)C2=O (configuration not stated)	inactive	inactive	inactive
C[C@@H]1CCCCO[C@@H](CN(C)Cc2ccc(Cl)c(Cl)c2)[C@H](C)CN([C@H](C)CO)C(=O)c2cc(NS(=O)(=O)c3cn(C)cn3)ccc2O1	inactive	inactive	inactive
C=CC[C@@H](CC(=O)N[C@@H](CO)Cc1ccccc1)C(=O)N[C@H](COC(=O)[C@@H](CC=C)Cc1ccc(F)cc1)Cc1c[nH]c2ccccc12	inactive	inactive	inactive
C[C@@H]1CN([C@@H](C)CO)C(=O)c2cc(NC(=O)C3CCCCC3)ccc2O[C@@H](C)CCCCO[C@@H]1CN(C)C(=O)C1CCCCC1	inactive	inactive	inactive
O=C(C[C@@H]1CC[C@@H]2[C@H](COC[C@@H](O)CN2S(=O)(=O)c2ccccc2)O1)N1CCOCC1	inactive	inactive	inactive
COc1ccc(COC(=O)[C@H]2[C@H]3C(=O)N(Cc4ccc5c(c4)OCO5)C[C@]34C=C[C@]2(Br)O4)cc1	inactive	inactive	inactive
C[C@@H]1CN([C@H](C)CO)C(=O)c2cccc(NC(=O)c3cnccn3)c2O[C@H]1CN(C)Cc1ccc(C(=O)O)cc1	inactive	inactive	inactive
COc1ccc(S(=O)(=O)N(C)C[C@H]2Oc3ccc(NC(=O)NC(C)C)cc3CC(=O)N([C@H](C)CO)C[C@@H]2C)cc1	inactive	inactive	inactive
O=C(C[C@@H]1C[C@H]2c3cc(NC(=O)c4ccc5c(c4)OCO5)ccc3O[C@H]2[C@H](CO)O1)NCc1cccnc1	inactive	inactive	inactive
C[C@H]1CN([C@@H](C)CO)C(=O)c2cc(NC(=O)CCCCCC(=O)Nc3ccccc3N)ccc2O[C@@H]1CN(C)C(=O)Nc1ccc(F)cc1	inactive	inactive	inactive
O=C(C[C@H]1CC[C@@H]2[C@H](COC[C@H](O)CN2S(=O)(=O)c2cccc(Cl)c2)O1)NC1Cc2ccccc2C1	inactive	inactive	inactive
COc1cccc(S(=O)(=O)Nc2ccc3c(c2)[C@@H]2C[C@H](CC(=O)NCCc4ccccc4)O[C@@H](CO)[C@@H]2O3)c1	inactive	inactive	inactive
C[C@H](CO)N1C[C@H](C)[C@@H](CN(C)C(=O)Nc2cccc3ccccc23)Oc2ccc(NS(=O)(=O)c3ccccc3)cc2C1=O	inactive	inactive	inactive
C[C@@H]1CN([C@@H](C)CO)C(=O)c2cccc(NS(C)(=O)=O)c2O[C@@H]1CN(C)Cc1ccc(C(=O)Nc2ccccc2N)cc1	inactive	inactive	inactive
Cc1ccc(S(=O)(=O)Nc2ccc3c(c2)C(=O)N([C@@H](C)CO)C[C@@H](C)[C@@H](CN(C)S(=O)(=O)c2cn(C)cn2)O3)cc1	inactive	inactive	inactive
COC(=O)Nc1nc2cc(C(=O)c3ccc(F)cc3)ccc2[nH]1	inactive	active	inactive
Cc1ccc2c(c1)C(=O)C[C@@H](c1ccc(Cl)cc1Cl)O2	inactive	inactive	inactive
N[C@H](C(=O)O)[C@@H](OCc1ccccc1)C(=O)O	inactive	inactive	inactive
O=c1ccc(=O)n(-c2ccccc2)[nH]1	inactive	inactive	inactive
COc1ccc(S(=O)(=O)N(C)C[C@H]2OCCCC[C@@H](C)Oc3ccc(NC(=O)NC4CCCCC4)cc3C(=O)N([C@@H](C)CO)C[C@@H]2C)cc1	inactive	active	inactive
CNC(=O)CN1CCN2CCN(CC(=O)NC)CC(=O)[O][Gd]([O]C(=O)C2)[O]C(=O)C1	inactive	inactive	inactive

Structure (SMILES)	cytotoxicity call (HSkMC)	cytotoxicity call (HepG2)	growth inhibition call (S. aureus RN4220)
C[C@@H]1CN([C@H](C)CO)C(=O)c2cc(C3=CCCCC3)cnc2O[C@H]1CN(C)S(=O)(=O)c1cn(C)cn1	inactive	inactive	inactive
COc1ccccc1C#Cc1ccc2c(c1)O[C@H](CN(C)Cc1ccncc1)[C@@H](C)CN([C@@H](C)CO)S2(=O)=O	active	active	inactive
Cc1ccc(S(=O)(=O)N(C)C[C@H]2OCCCC[C@H](C)Oc3ccc(NC(=O)Nc4ccc(F)cc4)cc3C(=O)N([C@@H](C)CO)C[C@@H]2C)cc1	inactive	inactive	inactive
C=CCNC(=O)[C@H]1[C@@H]2C(=O)O[C@@H](c3ccccc3)[C@@H](c3ccccc3)N2[C@@H](c2ccc(O)cc2)[C@]12C(=O)Nc1ccc(C#CC3=CCCCC3)cc12	inactive	inactive	inactive
Cn1cnc(S(=O)(=O)N2C[C@@H](O)COC[C@@H]3O[C@H](CC(=O)NC4CCC4)CC[C@H]32)c1	inactive	inactive	inactive
C[C@H](CO)N1C[C@H](C)[C@@H](CN(C)S(=O)(=O)c2cn(C)cn2)Oc2ccc(NC(=O)Cc3ccccc3)cc2CC1=O	inactive	inactive	inactive
C[C@@H]1CN([C@H](C)CO)C(=O)c2cccc(NC(=O)c3ccc(-c4nccs4)cc3)c2O[C@H]1CN(C)Cc1ccccc1	inactive	inactive	inactive
COc1ccc(S(=O)(=O)Nc2ccc3c(c2)C(=O)N([C@H](C)CO)C[C@@H](C)[C@H](CN(C)C(=O)Nc2ccc4c(c2)OCO4)OCCCC[C@@H](C)O3)cc1	inactive	inactive	inactive
C[C@H](CO)N1C[C@H](C)[C@H](CN(C)C(=O)Nc2ccc(C(F)(F)F)cc2)Oc2c(NS(C)(=O)=O)cccc2C1=O	inactive	inactive	inactive
C[C@@H]1CCCCO[C@H](CN(C)C(=O)CCC(F)(F)F)[C@@H](C)CN([C@@H](C)CO)C(=O)c2cc(NC(=O)C3CCCCC3)ccc2O1	inactive	inactive	inactive
O=C(O)c1ccc(OC[C@@H](O)CO[C@H](COc2ccc(C(=O)O)cc2)Cn2c3ccccc3c3ccccc32)cc1	inactive	inactive	inactive
C[C@H](CO)N1C[C@H](C)[C@@H](CN(C)C(=O)Nc2cccc3ccccc23)OCCCC[C@H](C)Oc2ccc(NC(=O)CCC(F)(F)F)cc2C1=O	inactive	active	inactive
C[C@@H]1CCCCO[C@@H](CN(C)S(=O)(=O)c2ccc(Cl)cc2)[C@@H](C)CN([C@H](C)CO)C(=O)c2cc(NC(=O)Nc3ccc(C(F)(F)F)cc3)ccc2O1	inactive	inactive	inactive
C[C@@H]1CCCCO[C@H](CN(C)Cc2ccccc2)[C@H](C)CN([C@H](C)CO)C(=O)c2cc(NC(=O)Nc3ccc4c(c3)OCO4)ccc2O1	inactive	inactive	inactive
COc1ccccc1CNC(=O)C[C@H]1C[C@H]2c3cc(NC(=O)Nc4ccc(C(F)(F)F)cc4)ccc3O[C@H]2[C@@H](CO)O1	inactive	inactive	inactive
C[N+]1(C)CCC(OC(=O)C(O)(c2ccccc2)C2CCCC2)C1.[Br-] (configuration not stated)	inactive	inactive	inactive
O=C(NC1CCN(CCCCC2(C(=O)NCC(F)(F)F)c3ccccc3-c3ccccc32)CC1)c1ccccc1-c1ccc(C(F)(F)F)cc1	active	active	active
Cc1cnc(Nc2ccc(F)cc2Cl)nc1-c1c[nH]c(C(=O)N[C@H](CO)c2cccc(Cl)c2)c1	active	active	inactive
C[C@H](CO)N1C[C@H](C)[C@H](CN(C)CC2CCCCC2)Oc2ccc(NC(=O)Nc3ccc(C(F)(F)F)cc3)cc2C1=O	active	active	active
NC(=O)CC1=NC(=O)CS1	inactive	inactive	inactive
C[C@@H]1CN([C@H](C)CO)C(=O)c2cccc(NC(=O)C3CCOCC3)c2O[C@@H]1CN(C)Cc1ccc(C(=O)O)cc1	inactive	inactive	inactive
CNC[C@@H]1Oc2ccc(NC(=O)CCN3CCOCC3)cc2CC(=O)N([C@@H](C)CO)C[C@H]1C	inactive	inactive	inactive
C[C@H](CO)N1C[C@H](C)[C@H](CN(C)S(=O)(=O)c2ccc(Cl)cc2)OCCCC[C@H](C)Oc2ccc(NC(=O)Nc3cccc4ccccc34)cc2C1=O	inactive	inactive	inactive
COc1ccc(NC(=O)N(C)C[C@H]2Oc3c(NC(=O)Nc4ccc(C(F)(F)F)cc4)cccc3C(=O)N([C@H](C)CO)C[C@H]2C)cc1	inactive	inactive	inactive
COc1ccc(NC(=O)N(C)C[C@@H]2Oc3ncc(Br)cc3C(=O)N([C@@H](C)CO)C[C@@H]2C)cc1	inactive	inactive	inactive
COc1ccc(CN(C)C[C@@H]2OCCCC[C@H](C)Oc3ccc(NS(=O)(=O)c4ccc(Cl)cc4)cc3C(=O)N([C@H](C)CO)C[C@H]2C)cc1	inactive	inactive	inactive
COc1ccc(NC(=O)N(C)C[C@H]2OCCCC[C@@H](C)Oc3ccc(NC(=O)Cc4ccccc4)cc3C(=O)N([C@@H](C)CO)C[C@H]2C)cc1	inactive	inactive	inactive
